# Not every entry of the source has a single result; some have several. Only these are listed. An entry can have further records. The records of an entry repeat one measurement across runs, samples, wells, individuals or studies.
# How the values were obtained:
# Type in all cases: toxicity, cell-based
# HEK-293T = assay: Multiplex assay against HEK293T; details: human, 1 µM, compound concentration 1 uM;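 as to Population Tubulin-Different-Phenotype (%): share of the cells with healthy nuclei that show this phenotype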
# Method in brief: (§1)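 Cells stained live at seeding with Hoechst33342, BioTracker Green Microtubule Cytoskeleton Dye, MitoTracker Red and Annexin V Alexa Fluor 680 were imaged on a CQ1 microscope at 37°C and 5% CO2 after compound addition. Their classification by CellPathfinder machine-learning gating ran from Hoechst high-intensity objects versus normal cells, to healthy, pyknosed or fragmented nuclei among normal cells, to mitotic or apoptotic among pyknosed cells. Tubulin, mitochondrial-mass and membrane-permeability phenotypes are per cents of healthy-nucleus cells.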
# U2OS = assay: Multiplex assay against U2OS; details: human, 1 µM, compound concentration 1 uM; method in brief: as §1
# Fibroblast = assay: Multiplex assay against human fibroblast; details: 1 µM, compound concentration 1 uM; method in brief: as §1
smiles,measurement,setting,value
c1ccc(-c2oc3ncnc(NC[C@@H]4CCCO4)c3c2-c2ccccc2)cc1,Population Membrane Permeable-Phenotype (%),"HEK-293T; 12 h, replicate 1",40% and 3%
same,Population Mitochondria Different-Phenotype (%),"HEK-293T; 12 h, replicate 1",13% and 4%
same,Population Tubulin-Different-Phenotype (%),"HEK-293T; 12 h, replicate 1",80% and 3%
same,Population Apoptotic (%),"HEK-293T; 12 h, replicate 2",13% and 2%
same,Population Fragmented Nuclei (%),"HEK-293T; 12 h, replicate 2",2% and 11%
same,Population Membrane Permeable-Phenotype (%),"HEK-293T; 12 h, replicate 2",31% and 2%
same,Population Mitochondria Different-Phenotype (%),"HEK-293T; 12 h, replicate 2",37% and 6%
same,Population Pyknosed Nuclei (%),"HEK-293T; 12 h, replicate 2",23% and 4%
same,Population Tubulin-Different-Phenotype (%),"HEK-293T; 12 h, replicate 2",96% and 8%
same,Population Membrane Permeable-Phenotype (%),"HEK-293T; 24 h, replicate 1",38% and 8%
same,Population Mitochondria Different-Phenotype (%),"HEK-293T; 24 h, replicate 1",23% and 3%
same,Population Pyknosed Nuclei (%),"HEK-293T; 24 h, replicate 1",23% and 7%
same,Population Tubulin-Different-Phenotype (%),"HEK-293T; 24 h, replicate 1",91% and 5%
same,Population Fragmented Nuclei (%),"HEK-293T; 24 h, replicate 2",4% and 31%
same,Population Membrane Permeable-Phenotype (%),"HEK-293T; 24 h, replicate 2",27% and 6%
same,Population Mitochondria Different-Phenotype (%),"HEK-293T; 24 h, replicate 2",40% and 1%
same,Population Pyknosed Nuclei (%),"HEK-293T; 24 h, replicate 2",21% and 2%
same,Population Tubulin-Different-Phenotype (%),"HEK-293T; 24 h, replicate 2",98% and 9%
same,Population Hoechst High Intensity Objects (%),"U2OS; 12 h, replicate 1",1% and 4%
same,Population Membrane Permeable-Phenotype (%),"U2OS; 12 h, replicate 1",72% and 8%
same,Population Tubulin-Different-Phenotype (%),"U2OS; 12 h, replicate 1",91% and 17%
same,Population Membrane Permeable-Phenotype (%),"U2OS; 12 h, replicate 2",66% and 20%
same,Population Tubulin-Different-Phenotype (%),"U2OS; 12 h, replicate 2",98% and 20%
same,Population Membrane Permeable-Phenotype (%),"U2OS; 24 h, replicate 1",68% and 8%
same,Population Apoptotic (%),"U2OS; 24 h, replicate 2",92% and 20%
same,Population Membrane Permeable-Phenotype (%),"U2OS; 24 h, replicate 2",61% and 13%
same,Population Mitotic Cells (%),"U2OS; 24 h, replicate 2",8% and 80%
same,Population Pyknosed Nuclei (%),"U2OS; 24 h, replicate 2",17% and 3%
same,Population Tubulin-Different-Phenotype (%),"U2OS; 24 h, replicate 2",89% and 24%
same,Population Tubulin-Different-Phenotype (%),"Fibroblast; 12 h, replicate 1",20% and 91%
same,Population Mitochondria Different-Phenotype (%),"Fibroblast; 24 h, replicate 1",41% and 4%
same,Population Tubulin-Different-Phenotype (%),"Fibroblast; 24 h, replicate 1",92% and 16%
same,Population Mitochondria Different-Phenotype (%),"Fibroblast; 24 h, replicate 2",6% and 57%
COc1cc(Nc2ccnc3ccc(Br)cc23)cc(OC)c1OC,Population Mitochondria Different-Phenotype (%),"HEK-293T; 12 h, replicate 1",29% and 6%
same,Population Tubulin-Different-Phenotype (%),"HEK-293T; 12 h, replicate 1",30% and 6%
same,Population Hoechst High Intensity Objects (%),"HEK-293T; 12 h, replicate 2",7% and 2%
same,Population Mitochondria Different-Phenotype (%),"HEK-293T; 12 h, replicate 2",52% and 14%
same,Population Tubulin-Different-Phenotype (%),"HEK-293T; 12 h, replicate 2",46% and 4%
same,Population Mitochondria Different-Phenotype (%),"HEK-293T; 24 h, replicate 1",44% and 8%
same,Population Pyknosed Nuclei (%),"HEK-293T; 24 h, replicate 2",37% and 12%
same,Population Tubulin-Different-Phenotype (%),"HEK-293T; 24 h, replicate 2",51% and 5%
same,Population Apoptotic (%),"U2OS; 12 h, replicate 2",76% and 0%
same,Population Mitotic Cells (%),"U2OS; 12 h, replicate 2",23% and 100%
same,Population Mitochondria Different-Phenotype (%),"U2OS; 24 h, replicate 1",11% and 41%
same,Population Mitotic Cells (%),"U2OS; 24 h, replicate 1",68% and 16%
same,Population Apoptotic (%),"U2OS; 24 h, replicate 2",87% and 8%
same,Population Mitotic Cells (%),"U2OS; 24 h, replicate 2",12% and 91%
same,Population Tubulin-Different-Phenotype (%),"Fibroblast; 12 h, replicate 1",38% and 4%
same,Population Healthy Nuclei (%),"Fibroblast; 12 h, replicate 2",27% and 8%
same,Population Mitochondria Different-Phenotype (%),"Fibroblast; 12 h, replicate 2",0% and 33%
same,Population Tubulin-Different-Phenotype (%),"Fibroblast; 24 h, replicate 1",1% and 26%
same,Population Apoptotic (%),"Fibroblast; 24 h, replicate 2",0% and 75%
same,Population Mitotic Cells (%),"Fibroblast; 24 h, replicate 2",100% and 25%
same,Population Pyknosed Nuclei (%),"Fibroblast; 24 h, replicate 2",2% and 12%

# From ChEMBL document CHEMBL4689842, “EUbOPEN Chemogenomics Library wave 1” (2021)
